Sequences with one replicate were seen in a single cluster, so their values are uncertain.
The sequences below were run on ATP (assay: switch fluorescence ratio, 500 uM ATP over buffer (Cy3 cluster intensity, sum of 5 cycles each) (fold (ratio)); higher = stronger signal-on switching upon ATP binding; sequences stand for … in TCGTCGGCAGCGTCAGATGTGTATAAGAGACAGTTTTTTTTTTTTTTTTTTTTTTTTT…TC). Details: aptamer strand: ATP DNA aptamer (quencher-CACCTGGGGGAGTATTGCGGAGGAAGG + anchor), 100 nM annealed; ATP concentration: 500 uM; one replicate.
Procedure, shortened: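 Five buffer/ATP imaging cycles were run on Cy3-labelled switching-strand clusters on a modified Illumina MiSeq flow-cell, with NaOH stripping and re-annealing between cycles. In each cycle, clusters annealed to 100 nM quencher-labelled ATP aptamer were imaged in selection buffer, then after 15 min with 500 uM ATP at 22 °C. Per cluster, the fluorescence ratio is summed target-cycle over summed buffer-cycle Cy3 intensity, averaged per switch-domain sequence. Only clusters within 100-1000 RFU were kept.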
Sequence CAGTCGGAAA has a switch fluorescence ratio of 0.968.
With CAGTCGGACG the switch fluorescence ratio was 0.999.
CAGTCTTCGT was tested, and the switch fluorescence ratio was 1.
CAGTGAAGTA showed a switch fluorescence ratio of 1.04.
For CAGTGAGTTG, the switch fluorescence ratio was 1.01.
Work on CAGTGCATAC yielded a switch fluorescence ratio of 1.7.
For CAGTGGCCAG, the switch fluorescence ratio was 1.03.
CAGTGGCGAA gave a switch fluorescence ratio of 1.01.
Sequence CAGTGGTGGC has a switch fluorescence ratio of 0.979.
Sequence CAGTGTCCTG has a switch fluorescence ratio of 0.953.
CAGTGTCGAA showed a switch fluorescence ratio of 1.03.
Sequence CAGTGTTCGC has a switch fluorescence ratio of 1.02.
For CAGTTACTA, the switch fluorescence ratio was 0.999.
CAGTTAGAAC was tested, and the switch fluorescence ratio was 0.998.
In the case of CAGTTCAGCG, the switch fluorescence ratio is reported as 1.
CAGTTCCATT showed a switch fluorescence ratio of 1.02.
For CAGTTCCTA, the switch fluorescence ratio was 0.993.
With CAGTTCCTCA the switch fluorescence ratio was 1.06.
CAGTTCGAAC was tested, and the switch fluorescence ratio was 0.962.
CAGTTGATGT gave a switch fluorescence ratio of 0.975.
CAGTTGCGAC was tested, and the switch fluorescence ratio was 0.977.
For CAGTTTACAG, the switch fluorescence ratio was 1.01.
In the case of CATAAAATTT, the switch fluorescence ratio is reported as 1.01.
With CATAAGGCGA the switch fluorescence ratio was 1.04.
In the case of CATAAGGGAG, the switch fluorescence ratio is reported as 1.04.
CATAATACAC gave a switch fluorescence ratio of 1.05.
CATAATAGTT was tested, and the switch fluorescence ratio was 1.
In the case of CATAATCCAG, the switch fluorescence ratio is reported as 0.99.
CATACAAGGT was tested, and the switch fluorescence ratio was 0.993.
For CATACATATA, the switch fluorescence ratio was 1.04.
In the case of CATACGCGTG, the switch fluorescence ratio is reported as 1.04.
Sequence CATACTAGTC has a switch fluorescence ratio of 1.1.
In the case of CATACTCCTT, the switch fluorescence ratio is reported as 1.13.
CATACTCTCA showed a switch fluorescence ratio of 1.1.
CATACTGGGG gave a switch fluorescence ratio of 1.
CATAGATGGT gave a switch fluorescence ratio of 0.987.
For CATAGTAGCA, the switch fluorescence ratio was 1.01.
In the case of CATAGTGC, the switch fluorescence ratio is reported as 1.07.
With CATATAAAGG the switch fluorescence ratio was 1.01.
For CATATAGAAA, the switch fluorescence ratio was 1.
For CATATAGGTC, the switch fluorescence ratio was 1.03.
Sequence CATATAGT has a switch fluorescence ratio of 1.03.
In the case of CATATATAAG, the switch fluorescence ratio is reported as 0.997.
In the case of CATATATGCC, the switch fluorescence ratio is reported as 1.
With CATATCAACC the switch fluorescence ratio was 1.05.
Work on CATATCGACA yielded a switch fluorescence ratio of 1.04.
Sequence CATATCGAGT has a switch fluorescence ratio of 0.998.
In the case of CATATCGGTG, the switch fluorescence ratio is reported as 0.96.
Sequence CATATCTTCC has a switch fluorescence ratio of 2.02.
Sequence CATATGGTTT has a switch fluorescence ratio of 1.01.
With CATCAAAATT the switch fluorescence ratio was 1.
For CATCAGAGAT, the switch fluorescence ratio was 0.983.
CATCAGAGCA was tested, and the switch fluorescence ratio was 1.04.
In the case of CATCAGTGAC, the switch fluorescence ratio is reported as 1.21.
Work on CATCATTTCA yielded a switch fluorescence ratio of 0.988.
CATCCCCTAG showed a switch fluorescence ratio of 1.21.
In the case of CATCCTAATT, the switch fluorescence ratio is reported as 1.02.
With CATCCTCACT the switch fluorescence ratio was 1.22.
Work on CATCCTGAGC yielded a switch fluorescence ratio of 1.08.
In the case of CATCCTTAAT, the switch fluorescence ratio is reported as 1.18.
CATCCTTTGG showed a switch fluorescence ratio of 1.02.
CATCGAACGG showed a switch fluorescence ratio of 1.02.
In the case of CATCGACAGC, the switch fluorescence ratio is reported as 1.08.
In the case of CATCGACTTG, the switch fluorescence ratio is reported as 1.01.
With CATCGATATT the switch fluorescence ratio was 0.937.
CATCGCCGTT gave a switch fluorescence ratio of 1.02.
For CATCGCTGGG, the switch fluorescence ratio was 1.04.
CATCGCTTCA gave a switch fluorescence ratio of 1.05.
In the case of CATCGGGAGC, the switch fluorescence ratio is reported as 1.03.
CATCGTAGTT was tested, and the switch fluorescence ratio was 1.03.
CATCGTCATT was tested, and the switch fluorescence ratio was 1.05.
Sequence CATCGTCCCG has a switch fluorescence ratio of 0.962.
CATCGTGAAA showed a switch fluorescence ratio of 1.01.
Work on CATCGTTGTA yielded a switch fluorescence ratio of 1.05.
With CATCTATATT the switch fluorescence ratio was 1.03.
Sequence CATCTCCGGG has a switch fluorescence ratio of 1.12.
CATCTCGACT was tested, and the switch fluorescence ratio was 0.998.
With CATCTCGCCG the switch fluorescence ratio was 1.
For CATCTGCCGG, the switch fluorescence ratio was 1.23.
CATCTTAAGT gave a switch fluorescence ratio of 0.983.
CATCTTGCTT gave a switch fluorescence ratio of 1.05.
Sequence CATCTTTGGA has a switch fluorescence ratio of 1.01.
Work on CATGAAAACG yielded a switch fluorescence ratio of 0.935.
CATGAAGCTA showed a switch fluorescence ratio of 1.1.
In the case of CATGAATTAC, the switch fluorescence ratio is reported as 1.04.
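Also: ATP exposure 15 min at 22 °C before imaging.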
